The values below come from a collection of fitness landscapes (doi:10.1126/science.1257360).

The list shows a part of the results.

The chains are these.
B1: PhoQ; a variant is named by its letters at X, in order, P23837 (parent)
chain: MKKLLRLFFPLSLRVRFLLATAAVVLVLSLAYGMVALIGYSVSFDKTTFRLLRGESNLFYTLAKWENNKLHVELPENIDKQSPTMTLIYDENGQLLWAQRDVPWLMKMIQPDWLKSNGFHEIEADVNDTSLLLSGDHSIQQQLQEVREDDDDAEMTHSVAVNVYPATSRMPKLTIVVVDTIPVELKSSYMVWSWFIYVLSANLLLVIPLLWVAAWWSLRPIEALAKEVRELEEHNRELLNPATTRELTSLVRNLNRLLKSERERYDKYRTTLTDLTHSLKTPLXXLQXXLRSLRSEKMSVSDAEPVMLEQISRISQQIGYYLHRASMRGGTLLSRELHPVAPLLDNLTSALNKVYQRKGVNISLDISPEISFVGEQNDFVEVMGNVLDNACKYCLEFVEISARQTDEHLYIVVEDDGPGIPLSKREVIFDRGQRVDTLRPGQGVGLAVAREITEQYEGKIVAGESMLGGARMEVIFGRQHSAPKDE

In this assay the parent is B1. Description: enrichment ratio after two sorts for PhoP signalling (ratio (wild type AVST 3.29)); higher = more functional. Conditions: with PhoP (E. coli).
For TMIT, the enrichment ratio was ≤ 0.25. Regarding AHMM, the enrichment ratio is ≤ 0.25. HNHE: the enrichment ratio is ≤ 0.25. Consider HPCP, for which the enrichment ratio was ≤ 0.25. Then PFVH, with ≤ 0.25. Regarding IPSH, the enrichment ratio is ≤ 0.25.

For DQNT, the enrichment ratio is ≤ 0.25. With KKLL, the enrichment ratio is ≤ 0.25.

As for ESTE, the enrichment ratio was ≤ 0.25. Regarding ICCA, the enrichment ratio was ≤ 0.25. As for DFLP, the enrichment ratio was ≤ 0.25. In the case of RAAE, the enrichment ratio is ≤ 0.25. For the variant RAQY, the enrichment ratio was ≤ 0.25. With VRPQ, the enrichment ratio was ≤ 0.25. On to QKHR, for which the enrichment ratio was ≤ 0.25. With VKCP, the enrichment ratio is ≤ 0.25. For the variant HHSV, the enrichment ratio is ≤ 0.25. Then EYYW, with ≤ 0.25; and SNAT, with 5.88; and MIVE, with ≤ 0.25. For EDAA, the enrichment ratio was ≤ 0.25.

As for IHQF, the enrichment ratio is ≤ 0.25. As for VTNM, the enrichment ratio is ≤ 0.25.

Consider WKCP, for which the enrichment ratio is ≤ 0.25. Consider EIDW, for which the enrichment ratio is ≤ 0.25. As for RQFH, the enrichment ratio is ≤ 0.25.

For WKTW, the enrichment ratio was ≤ 0.25.

On to WAFQ, for which the enrichment ratio was ≤ 0.25. Turning to WMGD, the enrichment ratio was ≤ 0.25. Take PCPC: the enrichment ratio was ≤ 0.25.

As to PKQD, the enrichment ratio is ≤ 0.25. Then MVIS, with ≤ 0.25. Consider DLTP, for which the enrichment ratio is ≤ 0.25. Regarding YEPC, the enrichment ratio was ≤ 0.25. Consider SSII, for which the enrichment ratio is 16.3. Then TDAQ, with 13.4; and QIVH, with ≤ 0.25. For the variant WHKM, the enrichment ratio was ≤ 0.25. Regarding PYVR, the enrichment ratio came out at 0.636. KTTC: the enrichment ratio was ≤ 0.25. Turning to LHKE, the enrichment ratio is ≤ 0.25. On to FIEL, for which the enrichment ratio is ≤ 0.25. For the variant TPFW, the enrichment ratio was ≤ 0.25. On to NTFC, for which the enrichment ratio was ≤ 0.25. For the variant EMGF, the enrichment ratio is ≤ 0.25. PHLW: the enrichment ratio was ≤ 0.25. Consider SFNG, for which the enrichment ratio was ≤ 0.25.

For the variant GYWD, the enrichment ratio was ≤ 0.25. Then AHCA, with ≤ 0.25; and DGTD, with ≤ 0.25; and YQYL, with ≤ 0.25. Then YLAV, with 0.272; and IESI, with ≤ 0.25; and IRNT, with ≤ 0.25. Take IVCC: the enrichment ratio is ≤ 0.25. Take RHHM: the enrichment ratio is ≤ 0.25.

Consider QFMD, for which the enrichment ratio was ≤ 0.25. On to NEYH, for which the enrichment ratio was ≤ 0.25. Then PWDS, with ≤ 0.25. As to KAGA, the enrichment ratio was ≤ 0.25. Then CDYT, with ≤ 0.25; and FPQE, with ≤ 0.25.

For the variant IVRT, the enrichment ratio is ≤ 0.25. Then IPDY, with ≤ 0.25. Take LIWE: the enrichment ratio was ≤ 0.25.

As for TINY, the enrichment ratio was ≤ 0.25. With SMEL, the enrichment ratio was ≤ 0.25.

For FHRP, the enrichment ratio was ≤ 0.25. Then LNRP, with ≤ 0.25; and ARTN, with ≤ 0.25; and RFHP, with ≤ 0.25. Then QKNY, with ≤ 0.25; and GQHN, with ≤ 0.25; and MMHY, with ≤ 0.25. On to WLQR, for which the enrichment ratio is ≤ 0.25. As for LFRG, the enrichment ratio was ≤ 0.25. Take QKHW: the enrichment ratio is ≤ 0.25.

PWSQ: the enrichment ratio was ≤ 0.25. In the case of HFPM, the enrichment ratio was ≤ 0.25. EGFP: the enrichment ratio is ≤ 0.25. Then SNLG, with 8.87; and QVYM, with ≤ 0.25; and WESS, with ≤ 0.25. Regarding PPSM, the enrichment ratio is ≤ 0.25. For HLLA, the enrichment ratio was ≤ 0.25. MIGR: the enrichment ratio was determined as 0.36.

As to IRLP, the enrichment ratio is ≤ 0.25. Take FVFS: the enrichment ratio is ≤ 0.25. Consider LIPK, for which the enrichment ratio is ≤ 0.25. Regarding SNFP, the enrichment ratio is ≤ 0.25. With GMDR, the enrichment ratio is ≤ 0.25.

On to QAQE, for which the enrichment ratio was ≤ 0.25.

Take MRPS: the enrichment ratio is ≤ 0.25. Consider DMCM, for which the enrichment ratio was ≤ 0.25. Consider NFFN, for which the enrichment ratio is ≤ 0.25.

For WQKE, the enrichment ratio is ≤ 0.25. With DCNY, the enrichment ratio was ≤ 0.25. As for PFQG, the enrichment ratio is ≤ 0.25. QYHV: the enrichment ratio is 0.497.

With KYTA, the enrichment ratio was ≤ 0.25.

In the case of NKTE, the enrichment ratio was ≤ 0.25. For EFVL, the enrichment ratio is ≤ 0.25. With WMLC, the enrichment ratio was ≤ 0.25. For TTNF, the enrichment ratio came to 6.07. As to SADR, the enrichment ratio was ≤ 0.25. IRHF: the enrichment ratio is ≤ 0.25. Turning to WPSF, the enrichment ratio is ≤ 0.25. With YGTQ, the enrichment ratio was ≤ 0.25.

Consider GMCY, for which the enrichment ratio was 3.55. For NMLR, the enrichment ratio was ≤ 0.25. Consider ARPH, for which the enrichment ratio is ≤ 0.25. As to YPQD, the enrichment ratio is ≤ 0.25. On to RRPA, for which the enrichment ratio is ≤ 0.25. Then AMNI, with ≤ 0.25; and FALM, with 17. Turning to SAWT, the enrichment ratio was ≤ 0.25. As to PDPL, the enrichment ratio was ≤ 0.25. In the case of LAMR, the enrichment ratio was ≤ 0.25. With YRDR, the enrichment ratio is ≤ 0.25.

For PVCG, the enrichment ratio was ≤ 0.25. Then DDRM, with ≤ 0.25; and WTCF, with ≤ 0.25.

For the variant VMYF, the enrichment ratio was ≤ 0.25. TNAH: the enrichment ratio worked out at 4.19. In the case of YPWR, the enrichment ratio was ≤ 0.25. For the variant KTWG, the enrichment ratio is ≤ 0.25. Then RRTV, with ≤ 0.25; and SKKY, with ≤ 0.25. Then LHHQ, with ≤ 0.25.

Consider LYFV, for which the enrichment ratio was ≤ 0.25.

KPMC: the enrichment ratio is ≤ 0.25. Then VNAC, with ≤ 0.25; and SVLG, with 9.57.

For VFMR, the enrichment ratio is ≤ 0.25. In the case of WPKH, the enrichment ratio is ≤ 0.25. As to QNSH, the enrichment ratio was ≤ 0.25.

For the variant QCTL, the enrichment ratio was ≤ 0.25.

As for AWGH, the enrichment ratio was ≤ 0.25.

KHQY: the enrichment ratio is ≤ 0.25. Regarding KMHS, the enrichment ratio is ≤ 0.25. THFD: the enrichment ratio is ≤ 0.25.

KVTE: the enrichment ratio is ≤ 0.25. As to TSEQ, the enrichment ratio is ≤ 0.25.

For the variant NSEE, the enrichment ratio was ≤ 0.25. Regarding QTDK, the enrichment ratio was ≤ 0.25.

Turning to HHMF, the enrichment ratio is ≤ 0.25.

For the variant VPHA, the enrichment ratio was ≤ 0.25.

Regarding CLCF, the enrichment ratio was ≤ 0.25.

Regarding AYTW, the enrichment ratio was ≤ 0.25. As to YADW, the enrichment ratio was ≤ 0.25.

For the variant AHKC, the enrichment ratio was ≤ 0.25. Regarding FDWR, the enrichment ratio is ≤ 0.25. As to PYYF, the enrichment ratio is ≤ 0.25.
